# Source: the supplement of paper PMC10126150
# Values marked as one replicate rest on one cluster of the flow cell; about a third of the high ones do not repeat.
# Tested on: ATP
# Test: switch fluorescence ratio, 500 uM ATP over buffer (Cy3 cluster intensity, sum of 5 cycles each) (fold (ratio)); higher = stronger signal-on switching upon ATP binding; sequences stand for … in TCGTCGGCAGCGTCAGATGTGTATAAGAGACAGTTTTTTTTTTTTTTTTTTTTTTTTT…TC
# Settings: aptamer strand: ATP DNA aptamer (quencher-CACCTGGGGGAGTATTGCGGAGGAAGG + anchor), 100 nM annealed; ATP concentration: 500 uM; one replicate
# Summary of the method: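 Clusters carrying Cy3-labelled switching strands on a modified Illumina MiSeq flow-cell were annealed to 100 nM quencher-labelled ATP aptamer and imaged in selection buffer. They were imaged again after 15 min with 500 uM ATP at 22 °C, over five buffer/ATP cycles with NaOH stripping and re-annealing in between. For each cluster, the fluorescence ratio is the summed Cy3 intensity of the target cycles divided by that of the buffer cycles, averaged per switch-domain sequence. Clusters outside 100-1000 RFU were left out.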
# 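Also: ATP exposure 15 min at 22 °C before imaging.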
row,Sequence,switch fluorescence ratio
1,CGCGCGCCGT,1.02
2,CGCGCGCCTG,0.975
3,CGCGCGCTCA,1.04
4,CGCGCGGCAG,0.98
5,CGCGCGTTAT,1.05
6,CGCGGAAAGG,1.02
7,CGCGGCAGCT,0.986
8,CGCGGCGCTT,1.01
9,CGCGGCTCTG,1.05
10,CGCGGGACCG,0.985
11,CGCGGGATCT,1.07
12,CGCGGGTTTA,1.04
13,CGCGTATGCT,1.05
14,CGCGTCAGGA,1
15,CGCGTCGACC,1.21
16,CGCGTCTGT,0.971
17,CGCGTTAGC,0.985
18,CGCGTTATAG,1.09
19,CGCGTTGCTG,1.01
20,CGCTAAAGGA,1.03
21,CGCTAAGTCT,1.36
22,CGCTACGAGA,1.09
23,CGCTAGAGGC,1.04
24,CGCTAGCGCA,1
25,CGCTATGGTA,0.996
26,CGCTCATCAG,0.986

row,Sequence,switch fluorescence ratio
1,CGCTCATCGT,1.01
2,CGCTCGGTTG,1.02
3,CGCTCTATCG,0.954
4,CGCTCTGTGT,1.02
5,CGCTGCCTGG,1.02
6,CGCTGCTACA,1.17
7,CGCTGCTGCC,1.04
8,CGCTGCTGGA,1.05
9,CGCTGGTCAC,1.14
10,CGCTTAATGA,1.11
11,CGCTTAATTT,0.984
12,CGCTTACATC,1.19
13,CGCTTAGATA,1.03
14,CGCTTCAGTA,0.985
15,CGCTTCGGGC,1.01
16,CGCTTCTGTG,0.984
17,CGCTTGGGGC,1.02
18,CGCTTGGGTT,0.983
19,CGCTTTCTGA,1.01
20,CGCTTTGGTA,0.962
21,CGCTTTGGTG,1.05
22,CGGAAAGTGG,0.976
23,CGGAAGGCTG,0.954
24,CGGAATAACA,1.09
25,CGGAATTGGA,1.03
26,CGGACATAGG,0.989

row,Sequence,switch fluorescence ratio
1,CGGACCCGCG,1.03
2,CGGACCTGA,1.16
3,CGGACTAAGT,1.06
4,CGGACTACA,1.08
5,CGGACTCAAG,1.04
6,CGGAGAGCAG,0.995
7,CGGAGATATA,0.982
8,CGGAGATTTG,0.975
9,CGGAGCCCGA,1.01
10,CGGAGCCTGG,1.05
11,CGGAGCGCCC,1.15
12,CGGAGGGTTT,0.978
13,CGGAGGTCGG,1
14,CGGAGTGTAG,1.03
15,CGGATAGCAT,1.13
16,CGGATCAACC,1.02
17,CGGATCCGCT,0.937
18,CGGATCCGG,0.996
19,CGGATGGCAA,1.36
20,CGGATTACCA,0.978
21,CGGCAATTGT,1.24
22,CGGCACAGAA,1
23,CGGCATTCTC,2.38
24,CGGCCAGGAT,0.997
25,CGGCCCGAAA,1.03
26,CGGCCCTCTG,1.01

row,Sequence,switch fluorescence ratio
1,CGGCCGACAC,1.06
2,CGGCCGCTAG,2.13
3,CGGCCGGTTT,1
4,CGGCCTATCT,1.01
5,CGGCCTTTGA,0.989
6,CGGCGCTCT,1.03
7,CGGCGCTGCT,1.03
8,CGGCGGTAGG,1.01
9,CGGCGGTGAC,1.11
10,CGGCGTAAAG,1.01
11,CGGCTATGTA,1.01
12,CGGCTCCTGG,1.03
13,CGGCTGAAGC,1.05
14,CGGCTGAGAC,1.13
15,CGGCTGGATT,1.02
16,CGGCTGTTG,1.02
17,CGGCTTACCA,1.04
18,CGGCTTGTAG,1.01
19,CGGCTTGTGG,0.99
20,CGGGACAGAC,1.2
21,CGGGACCGGG,1.05
22,CGGGACGCTG,0.957
23,CGGGAGAAC,0.982
24,CGGGAGGTCC,0.928
25,CGGGATAGG,1.02
26,CGGGATCGAA,0.936

row,Sequence,switch fluorescence ratio
1,CGGGATCTTG,0.967
2,CGGGATGAAG,1.03
3,CGGGATTTAT,1.01
4,CGGGCCAAGA,1.01
5,CGGGCCAGAG,1.01
6,CGGGCCCGTC,0.997
7,CGGGCCGTGC,1.07
8,CGGGCGCCGT,1.03
9,CGGGCGTGCG,0.959
10,CGGGCTAACT,1.02
11,CGGGCTACAG,1.02
12,CGGGCTCACG,0.987
13,CGGGGAAAGG,0.994
14,CGGGGAAGT,0.975
15,CGGGGAGCGA,1.01
16,CGGGGATGGA,1.05
17,CGGGGCGGAA,1.16
18,CGGGGGATCG,1.02
19,CGGGGGTATC,0.988
20,CGGGGGTGCG,0.986
21,CGGGGTATGT,0.943
22,CGGGGTGTAA,0.965
23,CGGGTCCCAA,1.02
24,CGGGTGACAA,1.01
25,CGGGTGACTG,0.943
26,CGGGTGTAC,1.17

row,Sequence,switch fluorescence ratio
1,CGGGTGTAGA,1.02
2,CGGGTGTGCC,0.988
3,CGGGTTGCTG,0.994
4,CGGGTTGTTT,1.04
5,CGGTAAAATC,1.49
6,CGGTAAGCAG,0.965
7,CGGTAGATTG,1.01
8,CGGTATAAT,0.959
9,CGGTATCTGC,0.942
10,CGGTCACTTT,0.99
11,CGGTCATGCT,0.997
12,CGGTCCCGGG,0.982
13,CGGTCGGCTG,1.03
14,CGGTCGTTTT,1.01
15,CGGTCTGGTT,0.991
16,CGGTGACTC,1.01
17,CGGTGCGCCC,1.08
18,CGGTGCTGGT,0.993
19,CGGTGGATAG,1.02
20,CGGTGGTTTC,1.01
21,CGGTGTGCA,1.11
22,CGGTGTTCAG,1.05
23,CGGTTGACCG,1.01
